Experimental data: the supplement of paper PMC6660600, “Odorant Inhibition in Mosquito Olfaction” (iScience, 2019)
The list shows a part of the results. Repeats are few or missing, and single values can be far off.

The molecules below were run on CquiOR32-CquiOrco (assay: current response class (signed ordinal: positive = inward/excitatory, negative = outward/inhibitory) (ordinal score (-3..3)); higher = stronger inward (excitatory) current). Conditions: 1 mM; holding potential (mV): -80.
Description: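 Xenopus oocytes co-expressing Culex quinquefasciatus CquiOR32 with CquiOrco were challenged by two-electrode voltage clamp (holding -80 mV) with a panel of about 200 odorants at 1 mM source dose (2 s stimulus). The response was scored qualitatively: + to +++ for weak to strong inward currents, x to xxx for weak to strong outward (inhibitory, reverse) currents, +/- and x/- for very weak currents (S/N 2-5), and - for no response. Scale: negative = stronger reverse/inhibitory current.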

| Compound | current response class |
| --- | --- |
| COC(=O)c1ccccc1C(=O)OC [dimethyl phthalate] | active: -1 |
| C=CC(=C)C [isoprene] | inactive: 0 |
| Cc1ccc(O)c(C)c1 [2,4-dimethylphenol] | inactive: 0 |
| COc1ccccc1OC [1,2-dimethoxybenzene] | active: 2 |
| Cc1ccc(O)cc1C [3,4-dimethylphenol] | inactive: 0 |
| CCCCOC(=O)c1ccccc1C(=O)OCCCC [dibutyl phthalate] | inactive: 0 |
| CC1CCC(=O)O1 (stereo not drawn) [γ-valerolactone] | inactive: 0 |
| c1ccncc1 [pyridine] | active: 2 |
| CSSC [methyl disulfide] | inactive: 0 |
| CC1=CC(=O)C=CC1=O [methyl-p-benzoquinone] | inactive: 0 |
| OCCOc1ccccc1 [2-phenoxyethanol] | active: 1 |
| CCC(C)=O [2-butanone] | active: 1 |
| C=C(C)[C@@H]1CC=C(C=O)CC1 [(S)-(-)-perillaldehyde] | inactive: 0 |
| CCOC(=O)Cc1ccccc1 [ethyl phenylacetate] | inactive: 0 |
| CCCCOC(C)=O [butyl acetate] | active: 0.5 |
| O=C/C=C/c1ccccc1 [(E)-cinnamaldehyde] | inactive: 0 |
| O=Cc1ccco1 [furfural] | inactive: 0 |
| COC(=O)c1ccccc1N [methyl anthranilate] | active: 1 |
| O=Cc1ccccc1 [benzaldehyde] | inactive: 0 |
| CCC1CCC(=O)O1 (stereo not drawn) [γ-hexalactone] | active: 2 |
| CC(C)[C@]12CC(=O)[C@H](C)[C@H]1C2 [thujone] | active: -3 |
| Cc1ccccc1O [2-methylphenol] | active: 1 |
| O=C1CCCN1 [2-pyrrolidinone] | inactive: 0 |
